{
  "source": "paper PMC4336329",
  "about": "(PLoS ONE, 2015)",
  "note": "About 14,000 (4.5%) of roughly 310,000 compounds showed an effect of 50% or more. The effect is printed as a negative number. Some of the results follow.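 Also: peak tail current of the secondary pulse compared with the same well before compound.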",
  "data": [
    {"target": "human ether-à-go-go-related gene (hERG) potassium channel (human, UniProt Q12809)", "sequence (Q12809 whole entry, looked up)": "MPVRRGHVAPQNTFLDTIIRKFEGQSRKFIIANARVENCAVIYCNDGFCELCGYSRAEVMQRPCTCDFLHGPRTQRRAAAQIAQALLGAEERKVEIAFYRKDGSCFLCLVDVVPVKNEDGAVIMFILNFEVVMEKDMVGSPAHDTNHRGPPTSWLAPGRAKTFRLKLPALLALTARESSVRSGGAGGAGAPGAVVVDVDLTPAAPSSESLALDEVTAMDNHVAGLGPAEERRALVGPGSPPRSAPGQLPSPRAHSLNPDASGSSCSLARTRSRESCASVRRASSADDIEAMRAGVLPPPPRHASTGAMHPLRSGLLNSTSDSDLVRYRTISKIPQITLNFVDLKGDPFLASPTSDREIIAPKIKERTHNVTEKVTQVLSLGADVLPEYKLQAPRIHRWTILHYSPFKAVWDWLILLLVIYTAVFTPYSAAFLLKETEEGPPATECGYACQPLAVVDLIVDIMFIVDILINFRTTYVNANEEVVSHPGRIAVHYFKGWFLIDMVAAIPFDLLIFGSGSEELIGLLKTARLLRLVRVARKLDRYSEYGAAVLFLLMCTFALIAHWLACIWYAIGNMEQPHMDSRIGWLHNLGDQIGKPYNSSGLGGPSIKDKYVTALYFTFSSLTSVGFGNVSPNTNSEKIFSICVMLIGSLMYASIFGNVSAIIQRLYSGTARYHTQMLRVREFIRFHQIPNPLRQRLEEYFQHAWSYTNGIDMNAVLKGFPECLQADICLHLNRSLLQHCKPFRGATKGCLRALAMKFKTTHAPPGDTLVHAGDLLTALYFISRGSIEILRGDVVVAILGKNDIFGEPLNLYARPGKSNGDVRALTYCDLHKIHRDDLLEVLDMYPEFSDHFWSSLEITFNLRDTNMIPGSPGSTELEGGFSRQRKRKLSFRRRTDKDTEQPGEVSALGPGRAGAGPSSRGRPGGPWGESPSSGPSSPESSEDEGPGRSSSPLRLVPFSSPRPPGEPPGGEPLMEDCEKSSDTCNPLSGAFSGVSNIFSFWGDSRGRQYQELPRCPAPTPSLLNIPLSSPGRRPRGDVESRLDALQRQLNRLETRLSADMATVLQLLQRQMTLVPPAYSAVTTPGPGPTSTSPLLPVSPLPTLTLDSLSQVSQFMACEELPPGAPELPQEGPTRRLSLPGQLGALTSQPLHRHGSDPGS", "assay": "primary screen, population patch clamp on CHO cells stably expressing hERG", "units": {"hERG current change (%, negative = inhibition) at 10uM": "%"}, "values": [
      {"smiles": "COCCn1c(C)cc(C(=O)CSc2nnc3ccccn23)c1C", "hERG current change (%, negative = inhibition) at 10uM": 10.3},
      {"smiles": "Cc1cccc(Oc2ccc(NC(=O)c3ccccc3C(=O)O)cc2)c1", "hERG current change (%, negative = inhibition) at 10uM": -4.69},
      {"smiles": "COc1ccccc1NC(=S)N1C2CCC1CC(NC(=O)NC13CC4CC(CC(C4)C1)C3)C2", "note": "(centres unmarked)", "hERG current change (%, negative = inhibition) at 10uM": -2.49},
      {"smiles": "O=C1CCCCC1c1cccc2ccccc12", "note": "(centres unmarked)", "hERG current change (%, negative = inhibition) at 10uM": -0.229},
      {"smiles": "CCOCCCNC(=O)c1cc(-c2ccc(Br)s2)nc2ccccc12", "hERG current change (%, negative = inhibition) at 10uM": 15},
      {"smiles": "CCC(C(=O)Nc1nccs1)c1ccccc1", "note": "(centres unmarked)", "hERG current change (%, negative = inhibition) at 10uM": 9.98},
      {"smiles": "Cc1ccc[n+](CC(O)Cn2c3ccccc3c3ccccc32)c1.[O-][Cl+3]([O-])([O-])[O-]", "note": "(centres unmarked)", "hERG current change (%, negative = inhibition) at 10uM": 9.51},
      {"smiles": "S=C(NCCc1ccccn1)NC1CC2CCC1C2", "note": "(centres unmarked)", "hERG current change (%, negative = inhibition) at 10uM": 16},
      {"smiles": "COc1cc2[nH]c(=O)n(Cc3ccc(C(=O)NCCCN4CCC(C)CC4)cc3)c(=O)c2cc1OC", "hERG current change (%, negative = inhibition) at 10uM": 5.9},
      {"smiles": "O=C(Cn1c(C(=O)OCCO)cc2ccccc21)c1ccccc1", "hERG current change (%, negative = inhibition) at 10uM": 10.3},
      {"smiles": "CCOc1cc(C2C3=C(CC(C)(C)CC3=O)N(CCOC)C3=C2C(=O)CC(C)(C)C3)ccc1OC", "hERG current change (%, negative = inhibition) at 10uM": -11.4},
      {"smiles": "Cc1cc(C)cc(N(CC(=O)NC(C)(C)C)C(=O)CCC(=O)Nc2ccccn2)c1", "hERG current change (%, negative = inhibition) at 10uM": 5.32},
      {"smiles": "COc1ccccc1S(=O)(=O)Cc1ccc(C(=O)NCc2cccs2)o1", "hERG current change (%, negative = inhibition) at 10uM": -36.1},
      {"smiles": "Cc1cccc(NC(=O)COC(=O)CCc2c[nH]c3ccccc23)c1C", "hERG current change (%, negative = inhibition) at 10uM": -6.32},
      {"smiles": "COc1ccc(-n2cnnc2SCC(=O)Nc2ccc(C(N)=O)cc2)cc1", "hERG current change (%, negative = inhibition) at 10uM": 9.51},
      {"smiles": "CN(C)CCCNC(=O)c1ccc(Cl)c(S(=O)(=O)N2CCCCCC2)c1.Cl", "hERG current change (%, negative = inhibition) at 10uM": -72.4},
      {"smiles": "Cn1c(CC(=O)c2ccc(Br)cc2)[n+](C)c2ccccc21.[Cl-]", "hERG current change (%, negative = inhibition) at 10uM": 3.46},
      {"smiles": "O=C(Cc1cc(=O)[nH][nH]1)N/N=C/c1ccccc1Cl", "hERG current change (%, negative = inhibition) at 10uM": -10.3},
      {"smiles": "COc1cc2c3c(c1OC)-c1cc(O)ccc1CC3NCC2.Cl", "note": "(centres unmarked)", "hERG current change (%, negative = inhibition) at 10uM": -31.5},
      {"smiles": "CCOc1ccc(NC(=O)CSc2nnc(CNC(=O)c3ccco3)o2)cc1", "hERG current change (%, negative = inhibition) at 10uM": -10.2},
      {"smiles": "CC(=O)NC1C(OCc2ccccc2)OC2COC(c3ccccc3)OC2C1OCC(=O)O", "note": "(centres unmarked)", "hERG current change (%, negative = inhibition) at 10uM": 27.6},
      {"smiles": "COc1ccccc1CNc1nc2nc(C)c(C)c(=O)n2[nH]1", "hERG current change (%, negative = inhibition) at 10uM": -13.5},
      {"smiles": "COc1ccccc1C(=O)NC(=O)COC(=O)C1CCC1", "hERG current change (%, negative = inhibition) at 10uM": -1.72},
      {"smiles": "CCOC(=O)c1c(NC(=O)c2noc(C)c2[N+](=O)[O-])sc(C(C)=O)c1C", "hERG current change (%, negative = inhibition) at 10uM": 2.8},
      {"smiles": "Cc1ccc(C(=O)c2nc(C(=O)NCCO)nc3ccccc23)cc1", "hERG current change (%, negative = inhibition) at 10uM": 25.8},
      {"smiles": "COCCCNC(=O)C1CCCCN1S(=O)(=O)c1ccc(F)cc1", "note": "(centres unmarked)", "hERG current change (%, negative = inhibition) at 10uM": 9.08},
      {"smiles": "Cc1cc(=O)n2nc(N3CCC(C(=O)NCCc4ccc(Cl)cc4)CC3)sc2n1", "hERG current change (%, negative = inhibition) at 10uM": -54.5},
      {"smiles": "N#CCCn1c(C(C#N)(CCC#N)CCC#N)nc2ccccc21", "hERG current change (%, negative = inhibition) at 10uM": 8.84},
      {"smiles": "CN1CCN(c2ccccc2NC(=O)c2c(F)cccc2F)CC1", "hERG current change (%, negative = inhibition) at 10uM": -19.9},
      {"smiles": "COCCn1cnc2c1c(=O)n(CC(=O)NCC(F)(F)F)c(=O)n2Cc1ccccc1", "hERG current change (%, negative = inhibition) at 10uM": 11.9},
      {"smiles": "Cc1nc(SCC(=O)Nc2cc(C)on2)c2c(=O)n(C)c(=O)n(C)c2n1", "hERG current change (%, negative = inhibition) at 10uM": -0.204},
      {"smiles": "CC1Cc2ccccc2N1S(=O)(=O)c1cccc2nsnc12", "note": "(centres unmarked)", "hERG current change (%, negative = inhibition) at 10uM": -7.34},
      {"smiles": "O=[N+]([O-])c1cc(S(=O)(=O)NCCN2CCOCC2)ccc1Cl", "hERG current change (%, negative = inhibition) at 10uM": 9.13},
      {"smiles": "Cc1ccc(C)c2nc(Cl)c(C#N)cc12", "hERG current change (%, negative = inhibition) at 10uM": 24.6},
      {"smiles": "COc1ccc(NS(=O)(=O)c2ccc(C)c(C(=O)NNC(=O)c3csc(N4CCOCC4)n3)c2)cc1", "hERG current change (%, negative = inhibition) at 10uM": -11.3},
      {"smiles": "Cc1ccc(C(=O)Nc2ccc3c(c2)C(=O)NC3=O)cc1", "hERG current change (%, negative = inhibition) at 10uM": 22.4},
      {"smiles": "CC(C)C[C@H](NC(=O)N1CCn2c1nc1ccccc12)C(=O)NCC1CCCO1", "note": "(some centres unmarked)", "hERG current change (%, negative = inhibition) at 10uM": 15.6},
      {"smiles": "COc1ccc(/C=C/C(=O)Nc2sc3c(c2C(=O)NCc2cccnc2)CCCC3)cc1", "hERG current change (%, negative = inhibition) at 10uM": -2.49},
      {"smiles": "Cn1c(CC(=O)Nc2ccc(F)cc2)c(Sc2ccccc2)c2ccccc21", "hERG current change (%, negative = inhibition) at 10uM": 8.87},
      {"smiles": "COc1ccc(NC(=O)Nc2cccc(OC)c2)cc1", "hERG current change (%, negative = inhibition) at 10uM": -0.126},
      {"smiles": "O=C(COc1ccccc1)NCCSCc1ccc(Cl)cc1", "hERG current change (%, negative = inhibition) at 10uM": -12.6},
      {"smiles": "COC(=O)c1ccc(CN(C(C)=O)c2ccccc2)o1", "hERG current change (%, negative = inhibition) at 10uM": 7.25},
      {"smiles": "Cc1ccc(/C=N/n2c(COc3ccccc3)n[nH]c2=S)s1", "hERG current change (%, negative = inhibition) at 10uM": 14.6},
      {"smiles": "COc1ccc(C)cc1Nc1n[n+](-c2ccccc2)c(-c2c(Cl)cccc2Cl)s1.[Cl-]", "hERG current change (%, negative = inhibition) at 10uM": -55.9},
      {"smiles": "CCOC(=O)c1ccc(CC2S/C(=C(\\C#N)C(C)=O)NC2=O)cc1", "note": "(centres unmarked)", "hERG current change (%, negative = inhibition) at 10uM": 4.34},
      {"smiles": "CCOC(=O)C(Cc1ccccc1)NC(=O)CCc1nnc2ccc(N3CCCCC3)nn12", "note": "(centres unmarked)", "hERG current change (%, negative = inhibition) at 10uM": -12.2},
      {"smiles": "Cc1ccc(C(C(=O)NCCc2ccccc2)N(C(=O)c2csnn2)C2CC2)cc1", "note": "(centres unmarked)", "hERG current change (%, negative = inhibition) at 10uM": -16.1},
      {"smiles": "COc1ccccc1-c1ccc(=O)n(CC(=O)NCC2CCCO2)n1.Cl", "note": "(centres unmarked)", "hERG current change (%, negative = inhibition) at 10uM": -0.834},
      {"smiles": "CCc1cc2c(Nc3ccccc3O)nc(C)nc2s1.Cl", "hERG current change (%, negative = inhibition) at 10uM": 18.8},
      {"smiles": "O=C(Cc1c(F)c(F)c(F)c(F)c1F)OC12CC3CC(C1)C(=O)C(C3)C2", "hERG current change (%, negative = inhibition) at 10uM": -11},
      {"smiles": "c1ccc2c(c1)NC(CN1CCOCC1)CO2", "note": "(centres unmarked)", "hERG current change (%, negative = inhibition) at 10uM": 2.98},
      {"smiles": "CCCNc1nc2c(c(=O)[nH]c(=O)n2C)n1CCCc1ccccc1", "hERG current change (%, negative = inhibition) at 10uM": 5.73},
      {"smiles": "COC(=O)c1ccc(COC(=O)c2ccc(SC)cc2OC)cc1", "hERG current change (%, negative = inhibition) at 10uM": 5.86},
      {"smiles": "COc1cc(C2c3c(-c4cc(Cl)c(C)cc4O)n[nH]c3C(=O)N2Cc2cccnc2)ccc1O", "note": "(centres unmarked)", "hERG current change (%, negative = inhibition) at 10uM": -1.14},
      {"smiles": "CC(C)C[C@H](NC(=O)OC(C)(C)C)C(=O)N[C@@H](CO)[C@H](O)[C@@H]1C[C@@H]1C(=O)NC1CC1", "hERG current change (%, negative = inhibition) at 10uM": 15.4},
      {"smiles": "CCOc1cc(NC(=O)c2ccco2)c(OCC)cc1NC(=O)Cc1cccc(OC)c1", "hERG current change (%, negative = inhibition) at 10uM": -5.75}
    ]}
  ]
}
